Test results: PubChem BioAssay AID504845 (National Center for Advancing Translational Sciences (NCATS), 2011)
The whole screen tested about 390,000 compounds, of which about 150 (0.038%) were called active. Inconclusive results, whose numbers are uncertain, are shown with a selection of clear calls. Calls come from the whole dose curve; as a rule, active = well fitted inhibition curve with a large enough effect; inconclusive = small, poorly fitted or top-dose-only effect; inactive = no such curve, though single readings can be large or run the other way. A potency beside an inconclusive call is a rough fit, not a confirmed value.

Each compound was assayed against Regulator of G-protein signaling 4 (Homo sapiens) (UniProt P49798) (assay: Inhibitors of Regulator of G Protein Signaling (RGS) 4: qHTS). Conditions: Transcreener GDP fluorescence polarization, RGS4-accelerated GTP hydrolysis; series mostly up to 114 µM.
Sequence of UniProt P49798 (P49798 whole entry, looked up): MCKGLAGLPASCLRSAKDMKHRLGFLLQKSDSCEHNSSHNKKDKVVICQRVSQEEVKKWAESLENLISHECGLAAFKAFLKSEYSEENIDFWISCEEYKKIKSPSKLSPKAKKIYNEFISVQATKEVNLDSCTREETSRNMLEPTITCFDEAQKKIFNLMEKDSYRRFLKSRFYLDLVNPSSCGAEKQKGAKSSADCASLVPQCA
Method in brief: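 MLSMR compounds (23 nl, pin-transferred) preincubated 10 min at room temperature with a 500nM (2x) first reagent, then RGS4 at 900nM (2x) plus Transcreener GDP mix added; fluorescence polarization (620/688 nm) read before and after 90 min at 30 °C.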
Note: nearly all actives have a fitted effect of over 75% in size.
Potency is the fitted concentration of half-maximal effect; tags give direction and shape of the fitted curve.

| Compound | Potency |
| --- | --- |
| Cc1ccc(-c2sc(-c3ccccc3)nc2CC(=O)Nc2ccccc2F)cc1 | inactive |
| Cn1nc(-c2ccc(Cl)cc2)c2cc(C(=O)N3CCCC3)sc21 | inactive |
| COc1ccc(CCCNC(=O)C2CCC(=O)N(CC3CCCCC3)C2)cc1 (stereo not given) | inconclusive: 89.1 µM [inhibitor, single point] |
| COc1ccc(C(=O)Nc2ccc(-c3ccc(C)o3)cc2)cc1S(=O)(=O)N1CCOCC1 | inconclusive: 50.1 µM [inhibitor, partial curve, poor fit] |
| CCCCS(=O)(=O)c1oc(-c2cccs2)nc1S(=O)(=O)c1ccccc1 | inconclusive: 17.8 µM [inhibitor, full curve, poor fit] |
| C/C(=N\Nc1nc2ccccc2c(=O)n1O)c1ccco1 | inconclusive: 79.4 µM [inhibitor, single point] |
| COc1cccc(NS(=O)(=O)c2ccc3c(c2)C2C=CCC2C(c2ccc(C(=O)O)cc2)N3)c1 (stereo not given) | inconclusive: 28.2 µM [inhibitor, full curve, poor fit] |
| NC(=S)N/N=C/c1ccc(-c2cccc([N+](=O)[O-])c2)o1 | inconclusive: 50.1 µM [inhibitor, partial curve, poor fit] |
| Cc1ccccc1NC(=O)c1nc(S(C)(=O)=O)ncc1Cl | inconclusive: 17.8 µM [inhibitor, full curve, poor fit] |
| CC(=O)Nc1ccc(C2=NNC(=Nc3cccc(S(=O)(=O)N(C)C)c3)SC2)cc1 | inconclusive: 28.2 µM [inhibitor, full curve, poor fit] |
| CCOC(=O)n1cnc2nc(N)nc(SC)c21 | inconclusive: 89.1 µM [inhibitor, single point] |
| CC(=O)c1ccc(NC(=O)CCc2c(C)nc3ncnn3c2C)cc1 | inactive |
| Cc1cc(C)cc(OCC(O)CN2C(=O)NC(C)(C)C2=O)c1 (stereo not given) | inconclusive: 50.1 µM [inhibitor, partial curve, poor fit] |
| COc1ccccc1-c1nn2c(C3COc4ccccc4O3)nnc2s1 (stereo not given) | inconclusive: 50.1 µM [inhibitor, partial curve, poor fit] |
| NC(=O)c1ncc(C(F)(F)F)cc1Oc1ccc(C(F)(F)F)cc1 | inconclusive: 89.1 µM [inhibitor, single point] |
| O=C(CC(c1ccco1)S(=O)(=O)c1ccccc1)c1ccccc1 (stereo not given) | inconclusive: 44.7 µM [inhibitor, partial curve, poor fit] |
| CCCCn1cnc2sc(-c3ccccc3)cc2c1=O | inactive |
| Cc1ccc(C(=O)Nc2sc(C)c(C)c2C(=O)c2ccccc2)cc1 | inconclusive: 100 µM [inhibitor, partial curve, poor fit] |
| O=C(c1ccccc1)C(CN1CCCCC1)c1ccccc1 (stereo not given) | inconclusive: 39.8 µM [inhibitor, partial curve, poor fit] |
| Cc1nn(-c2ccccc2)c(Cl)c1C(=O)OCC(=O)NCCc1ccccc1 | inactive |
| COc1cccc(CSc2nc3n(n2)C(CC(C)C)C(C(=O)Nc2ccccc2OC)=C(C)N3)c1 (stereo not given) | inconclusive: 79.4 µM [inhibitor, single point] |
| Cc1nc(NCCc2ccccc2)sc1C(=O)N(C)C | inconclusive: 17.8 µM [inhibitor, full curve, poor fit] |

| Compound | Potency |
| --- | --- |
| c1ccc(-c2csc3nnc(SCc4ccc5c(c4)OCO5)n23)cc1 | inconclusive: 17.8 µM [inhibitor, full curve, poor fit] |
| Cc1ccc(NC2=C(Cl)C(=O)N(C3CCCCC3)C2=O)cc1 | inconclusive: 89.1 µM [inhibitor, single point] |
| NS(=O)(=O)c1ccc(NC(=S)N2CCC(Cc3ccccc3)CC2)cc1 | inconclusive: 20 µM [inhibitor, full curve, poor fit] |
| CC(C)CCn1c(=O)c2sccc2n2c(CCCC(=O)NCCc3ccccc3)nnc12 | inactive |
| COc1ccc(C(OC(=O)c2c(C)noc2C)C(=O)NC2CCCC2)cc1 (stereo not given) | inactive |
| Cn1c(N)c(C(=O)Nc2ccc3ccccc3c2)sc1=S | inconclusive: 89.1 µM [inhibitor, single point] |
| O=C(CNC(=S)N(Cc1ccccc1)Cc1cccs1)NCc1ccc(F)cc1 | inactive |
| O=C1OCCC1Sc1nc2cc(Cl)ccc2n1Cc1ccccc1 (stereo not given) | inconclusive: 89.1 µM [inhibitor, single point] |
| CCN(CC)C(=O)c1csc(Nc2ccc(C)cc2)n1 | inactive |
| Cc1cc2c(SCC(=O)Nc3ccccc3O)ncnc2s1 | inconclusive: 79.4 µM [inhibitor, partial curve, poor fit] |
| Cc1cc(C)c(C)c(S(=O)(=O)N2CCN(C(=O)C3CSC4(C)CCC(=O)N34)CC2)c1C (stereo not given) | inconclusive: 79.4 µM [inhibitor, single point] |
| Cc1c2ccccc2nc2c(F)c(NCCO)c(F)c(F)c12 | inactive |
| CCOC(=O)C1=C(O)/C(=C/c2ccc(OCC(=O)O)c(OCC)c2)SC1=Nc1ccc(OC)cc1 | inconclusive: 44.7 µM [inhibitor, partial curve, poor fit] |
| COc1ccc(/C=N/NC(=O)CCn2c3ccccc3c3ccccc32)cc1OC | inconclusive: 89.1 µM [inhibitor, partial curve, poor fit] |
| FC(F)(F)c1cc(-c2ccccc2)nc(NC2CCCC2)n1 | inactive |
| O=[N+]([O-])c1ccc(-c2csc3[n+]2CCS3)cc1 | inconclusive: 10 µM [inhibitor, full curve, poor fit] |
| Cc1ccccc1OCCNC(=S)Nc1ccccc1 | inactive |
| Cc1nc2nc(SCC(=O)C(C)(C)C)[nH]c2cc1Br | inconclusive: 79.4 µM [inhibitor, partial curve, poor fit] |
| CCC(=O)NNC(=S)NC(=O)c1ccc(C)cc1 | inconclusive: 79.4 µM [inhibitor, partial curve, poor fit] |
| O=C(NCCN1CCN(c2ccccc2)CC1)Nc1ccccc1Cl | inactive |
| Cc1ccc(C)c(OCC(O)CN2CCc3ccccc3C2)c1C (stereo not given) | inactive |
| COc1ccccc1/C=C/C(=O)c1cc(Br)ccc1OC(=O)c1ccco1 | inconclusive: 70.8 µM [inhibitor, partial curve, poor fit] |

| Compound | Potency |
| --- | --- |
| CC(=O)c1ccc(NC(=O)c2ccc(COc3ccccc3[N+](=O)[O-])o2)cc1 | inconclusive: 44.7 µM [inhibitor, partial curve, poor fit] |
| CN=Cc1nc(-c2ccccc2)oc1O | inconclusive: 89.1 µM [inhibitor, single point] |
| CC(=O)c1ccc(NC(=O)c2ccc(-c3ccc(Cl)cc3)o2)cc1 | inconclusive: 31.6 µM [inhibitor, full curve, poor fit] |
| Oc1ccc(/C=N/NC(=S)N2CCOCC2)cc1 | inconclusive: 79.4 µM [inhibitor, partial curve, poor fit] |
| N=c1c(C(=O)NCC2CCCO2)cc2c(=O)n3ccccc3nc2n1Cc1ccc(Cl)cc1 (stereo not given) | inactive |
| CC(C)(CO)NCc1ccc(Br)cc1 | inconclusive: 20 µM [inhibitor, full curve, poor fit] |
| Oc1ccc(N=Cc2sc3ccccc3c2Cl)cc1 | inconclusive: 89.1 µM [inhibitor, partial curve, poor fit] |
| Cc1ccc(C)c(N(C(=O)c2snc(C(N)=O)c2N)C(C(=O)NCC2CCCO2)c2cccs2)c1 (stereo not given) | inconclusive: 44.7 µM [inhibitor, partial curve, poor fit] |
| CC(=O)NC(Cc1ccc(F)cc1)C(=O)NC1CCN(c2nnnn2-c2ccccc2)CC1 (stereo not given) | inconclusive: 100 µM [inhibitor, partial curve, poor fit] |
| Nc1ccc2c(c1)Cc1cc(Cl)c(Cl)cc1-2 | inconclusive: 100 µM [inhibitor, partial curve, poor fit] |
| CCCc1nnc(NC(=O)c2nc(S(=O)(=O)Cc3cccc(C)c3)ncc2Cl)s1 | inactive |
| COc1ccc(C(=O)NC(=S)NNC(=O)c2ccc(NC(C)=O)cc2)cc1Br | inconclusive: 17.8 µM [inhibitor, full curve, poor fit] |
| COc1ccc(-c2c(-c3cc(OC)cc(OC)c3)n(C)c3ccc(-c4ccc(S(N)(=O)=O)cc4)cc23)cc1 | inconclusive: 17.8 µM [inhibitor, full curve, poor fit] |
| COCCN(C(=O)c1ccc(N2CCCC2=O)cc1)c1c(N)n(CC(C)C)c(=O)[nH]c1=O | inconclusive: 89.1 µM [inhibitor, single point] |
| O=C(COC(=O)CCC(=O)c1cccs1)NCc1ccccc1 | inconclusive: 70.8 µM [inhibitor, single point] |
| Cc1cc(C)nc(SCc2ccc(C(=O)N/N=C/c3cccc(O)c3O)cc2)n1 | inconclusive: 25.1 µM [inhibitor, full curve, poor fit] |
| Cc1ccc(-c2ccc(C(=O)Nc3ccccc3)o2)c2ccccc12 | inconclusive: 89.1 µM [inhibitor, partial curve, poor fit] |
| CN1CCN(C2=Nc3ccccc3Sc3ccc(Cl)cc32)CC1 | inconclusive: 37.7 µM [inhibitor, partial curve, poor fit] |
| COCCSc1nc2c(c(=O)[nH]c(=O)n2C)n1CCCc1ccccc1 | inconclusive: 89.1 µM [inhibitor, partial curve, poor fit] |
| COc1cc(N=c2ssnc2Cl)cc(OC)c1 | inconclusive: 31.6 µM [inhibitor, full curve, poor fit] |
| COc1cc(NC(=O)CCS(=O)(=O)c2ccc3c(c2)n(C)c(=O)c(=O)n3C)cc(OC)c1 | inactive |
